From ChEMBL document CHEMBL4689842, “EUbOPEN Chemogenomics Library wave 1” (2021)
Some entries of the source have several records that differ or are many. The list is limited to them. The source may hold further records. Values given together are repeated measurements across runs, samples, wells, individuals or studies.

Key:
Format in all cases: toxicity, cell-based
U2OS = assay: Multiplex assay against U2OS; conditions: human
Method in brief: (§1)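 Compound was added to live cells that had been stained at seeding with Hoechst33342, BioTracker Green Microtubule Cytoskeleton Dye, MitoTracker Red and Annexin V Alexa Fluor 680, and imaging followed on a CQ1 microscope at 37°C and 5% CO2. CellPathfinder machine-learning gating divided cells into Hoechst high-intensity objects or normal cells, normal cells into healthy, pyknosed or fragmented nuclei, and pyknosed cells into mitotic or apoptotic. Tubulin, mitochondrial-mass and membrane-permeability phenotypes are per cents of healthy-nucleus cells.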

Fibroblast = assay: Multiplex assay against human fibroblast; method in brief: as §1
HEK-293T = assay: Multiplex assay against HEK293T; conditions: human; method in brief: as §1;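 on Population Tubulin-Different-Phenotype (%): share of the cells with healthy nuclei that show this phenotype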
[1] = 12 h, 1 µM, compound concentration 1 uM, replicate 1
[2] = 12 h, 1 µM, compound concentration 1 uM, replicate 2
[3] = 24 h, 1 µM, compound concentration 1 uM, replicate 1
[4] = 24 h, 1 µM, compound concentration 1 uM, replicate 2
[5] = 12 h, 10 µM, compound concentration 10 uM, replicate 1
[6] = 12 h, 10 µM, compound concentration 10 uM, replicate 2
[7] = 24 h, 10 µM, compound concentration 10 uM, replicate 1
[8] = 24 h, 10 µM, compound concentration 10 uM, replicate 2
[9] = 48 h, 1 µM, compound concentration 1 uM, replicate 2
[10] = 48 h, 10 µM, compound concentration 10 uM, replicate 2
[11] = 48 h, 10 µM, compound concentration 10 uM, replicate 1

CNC(=O)Nc1ccc2c(c1)CC[C@@]21OC(=O)N(CC(=O)N(Cc2ccc(F)cc2)[C@@H](C)C(F)(F)F)C1=O [A-485]
Population Membrane Permeable-Phenotype (%) (U2OS; [1]): 66% and 14% | Population Membrane Permeable-Phenotype (%) (U2OS; [2]): 64% and 20% | Population Tubulin-Different-Phenotype (%) (U2OS; [2]): 37% and 9% | Population Apoptotic (%) (U2OS; [3]): 6% and 33% | Population Pyknosed Nuclei (%) (U2OS; [4]): 13% and 2% | Population Membrane Permeable-Phenotype (%) (Fibroblast; [1]): 18% and 3% | Population Mitochondria Different-Phenotype (%) (Fibroblast; [1]): 9% and 1% | Population Tubulin-Different-Phenotype (%) (Fibroblast; [1]): 37% and 8% | Population Apoptotic (%) (Fibroblast; [2]): 33% and 100% | Population Mitotic Cells (%) (Fibroblast; [2]): 66% and 0% | Population Mitochondria Different-Phenotype (%) (Fibroblast; [3]): 14% and 3% | Population Membrane Permeable-Phenotype (%) (Fibroblast; [4]): 35% and 7% | Population Membrane Permeable-Phenotype (%) (HEK-293T; [1]): 28% and 7% | Population Tubulin-Different-Phenotype (%) (HEK-293T; [1]): 52% and 8% | Population Membrane Permeable-Phenotype (%) (HEK-293T; [2]): 20% and 4% | Population Tubulin-Different-Phenotype (%) (HEK-293T; [2]): 79% and 14% | Population Mitochondria Different-Phenotype (%) (HEK-293T; [4]): 9% and 2% | Population Tubulin-Different-Phenotype (%) (HEK-293T; [4]): 83% and 17%

CS(=O)(=O)N1CCCC(NC(=O)[C@H](CCC2CCCCC2)NC(=O)c2ccc(CNC(=O)c3cnc4ccccn34)cc2)C1 (some centres not stated) [SR-302]
Population Hoechst High Intensity Objects (%) (U2OS; [1]): 4, 2, 3, 7% | Population Mitochondria Different-Phenotype (%) (U2OS; [1]): 26, 6, 8, 11% | Population Apoptotic (%) (U2OS; [2]): 0%, 40%, 33% | Population Mitochondria Different-Phenotype (%) (U2OS; [2]): 27%, 7%, 9% | Population Mitochondria Different-Phenotype (%) (U2OS; [5]): 79, 72, 74, 20% | Population Pyknosed Nuclei (%) (U2OS; [5]): 18, 16, 13, 2% | Population Tubulin-Different-Phenotype (%) (U2OS; [5]): 84, 75, 83, 15% | Population Apoptotic (%) (U2OS; [6]): 100, 71, 66, 20% | Population Mitochondria Different-Phenotype (%) (U2OS; [6]): 77, 89, 88, 23% | Population Mitotic Cells (%) (U2OS; [6]): 0, 28, 33, 80% | Population Tubulin-Different-Phenotype (%) (U2OS; [6]): 79, 91, 92, 19% | Population Mitochondria Different-Phenotype (%) (U2OS; [3]): 20, 5, 6, 11% | Population Tubulin-Different-Phenotype (%) (U2OS; [3]): 14%, 44%, 35% | Population Apoptotic (%) (U2OS; [4]): 33%, 50%, 14% | Population Hoechst High Intensity Objects (%) (U2OS; [4]): 10%, 14%, 4% | Population Mitochondria Different-Phenotype (%) (U2OS; [4]): 24, 8, 7, 4% | Population Mitochondria Different-Phenotype (%) (U2OS; [7]): 50, 66, 64, 13% | Population Pyknosed Nuclei (%) (U2OS; [7]): 17%, 16%, 4% | Population Tubulin-Different-Phenotype (%) (U2OS; [7]): 47%, 61%, 12% | Population Mitochondria Different-Phenotype (%) (U2OS; [8]): 83, 75, 71, 24% | Population Tubulin-Different-Phenotype (%) (U2OS; [8]): 72, 56, 57, 18% | Population Apoptotic (%) (U2OS; [9]): 55%, 8%, 33% | Population Mitotic Cells (%) (U2OS; [10]): 23%, 53%, 10% | Population Tubulin-Different-Phenotype (%) (Fibroblast; [1]): 25, 40, 56, 2% | Total Cell Count (Fibroblast; [1]): 69, 83, 91, 305 | Population Fragmented Nuclei (%) (Fibroblast; [2]): 55, 8, 12, 10% | Population Hoechst High Intensity Objects (%) (Fibroblast; [2]): 24, 6, 16, 2% | Population Tubulin-Different-Phenotype (%) (Fibroblast; [2]): 6, 17, 32, 14% | Population Mitochondria Different-Phenotype (%) (Fibroblast; [5]): 28, 60, 52, 7% | Population Fragmented Nuclei (%) (Fibroblast; [6]): 48, 12, 9, 6% | Population Hoechst High Intensity Objects (%) (Fibroblast; [6]): 33, 7, 6, 3% | Population Mitochondria Different-Phenotype (%) (Fibroblast; [6]): 6, 77, 89, 88% | Population Mitotic Cells (%) (Fibroblast; [6]): 50, 0, 28, 33% | Population Membrane Permeable-Phenotype (%) (Fibroblast; [3]): 33, 22, 27, 8% | Population Tubulin-Different-Phenotype (%) (Fibroblast; [3]): 46, 55, 29, 1% | Total Cell Count (Fibroblast; [3]): 63, 98, 87, 368 | Population Apoptotic (%) (Fibroblast; [4]): 58, 50, 14, 33% | Population Fragmented Nuclei (%) (Fibroblast; [4]): 50%, 7%, 3% | Population Healthy Nuclei (%) (Fibroblast; [4]): 28, 84, 88, 93% | Population Hoechst High Intensity Objects (%) (Fibroblast; [4]): 23% and 4% | Population Pyknosed Nuclei (%) (Fibroblast; [4]): 21%, 8%, 2% | Population Tubulin-Different-Phenotype (%) (Fibroblast; [4]): 6, 27, 16, 11% | Population Membrane Permeable-Phenotype (%) (Fibroblast; [7]): 50, 35, 17, 10% | Population Mitochondria Different-Phenotype (%) (Fibroblast; [7]): 43, 50, 52, 14% | Total Cell Count (Fibroblast; [7]): 43, 83, 118, 217 | Population Fragmented Nuclei (%) (Fibroblast; [8]): 51, 7, 1, 9% | Population Healthy Nuclei (%) (Fibroblast; [8]): 24%, 77%, 82% | Population Hoechst High Intensity Objects (%) (Fibroblast; [8]): 37, 11, 4, 5% | Population Apoptotic (%) (Fibroblast; [9]): 100%, 0%, 50% | Population Mitotic Cells (%) (Fibroblast; [9]): 0%, 100%, 50% | Population Pyknosed Nuclei (%) (Fibroblast; [9]): 1%, 2%, 4% | Population Tubulin-Different-Phenotype (%) (Fibroblast; [9]): 51%, 15%, 18% | Population Membrane Permeable-Phenotype (%) (Fibroblast; [11]): 43%, 28%, 11% | Population Mitotic Cells (%) (Fibroblast; [11]): 46%, 12%, 50% | Population Pyknosed Nuclei (%) (Fibroblast; [11]): 20%, 12%, 38% | Population Hoechst High Intensity Objects (%) (Fibroblast; [10]): 1% and 9% | Population Healthy Nuclei (%) (HEK-293T; [1]): 27, 35, 18, 73% | Population Mitochondria Different-Phenotype (%) (HEK-293T; [1]): 84, 80, 77, 3% | Population Pyknosed Nuclei (%) (HEK-293T; [1]): 55%, 68%, 14% | Population Tubulin-Different-Phenotype (%) (HEK-293T; [1]): 38, 41, 52, 3% | Population Membrane Permeable-Phenotype (%) (HEK-293T; [2]): 13, 5, 4, 1% | Population Mitochondria Different-Phenotype (%) (HEK-293T; [2]): 26%, 19%, 6% | Population Pyknosed Nuclei (%) (HEK-293T; [2]): 53, 50, 46, 4% | Population Tubulin-Different-Phenotype (%) (HEK-293T; [2]): 19, 13, 28, 7% | Total Cell Count (HEK-293T; [2]): 169, 288, 267, 1738 | Population Healthy Nuclei (%) (HEK-293T; [5]): 16, 17, 15, 70% | Population Mitochondria Different-Phenotype (%) (HEK-293T; [5]): 100%, 96%, 9% | Population Pyknosed Nuclei (%) (HEK-293T; [5]): 70, 69, 68, 16% | Population Tubulin-Different-Phenotype (%) (HEK-293T; [5]): 100, 98, 96, 18% | Population Apoptotic (%) (HEK-293T; [6]): 47, 48, 50, 7% | Population Fragmented Nuclei (%) (HEK-293T; [6]): 2, 8, 3, 7% | Population Hoechst High Intensity Objects (%) (HEK-293T; [6]): 4, 9, 5, 2% | Population Mitochondria Different-Phenotype (%) (HEK-293T; [6]): 85, 79, 90, 18% | Population Pyknosed Nuclei (%) (HEK-293T; [6]): 66, 55, 59, 5% | Total Cell Count (HEK-293T; [6]): 216, 147, 248, 1427 | Population Healthy Nuclei (%) (HEK-293T; [3]): 27, 35, 20, 82% | Population Mitochondria Different-Phenotype (%) (HEK-293T; [3]): 75, 72, 73, 3% | Population Pyknosed Nuclei (%) (HEK-293T; [3]): 55, 53, 66, 5% | Population Tubulin-Different-Phenotype (%) (HEK-293T; [3]): 32, 35, 42, 8% | Total Cell Count (HEK-293T; [3]): 263, 549, 323, 927 | Population Apoptotic (%) (HEK-293T; [4]): 23%, 24%, 6% | Population Fragmented Nuclei (%) (HEK-293T; [4]): 4%, 7%, 26% | Population Hoechst High Intensity Objects (%) (HEK-293T; [4]): 4, 2, 3, 1% | Population Mitochondria Different-Phenotype (%) (HEK-293T; [4]): 19, 18, 1, 35% | Population Pyknosed Nuclei (%) (HEK-293T; [4]): 32, 28, 2, 29% | Population Tubulin-Different-Phenotype (%) (HEK-293T; [4]): 24, 18, 9, 43% | Total Cell Count (HEK-293T; [4]): 207, 380, 2857, 321 | Population Healthy Nuclei (%) (HEK-293T; [7]): 19, 13, 18, 80% | Population Membrane Permeable-Phenotype (%) (HEK-293T; [7]): 3%, 2%, 10% | Population Mitochondria Different-Phenotype (%) (HEK-293T; [7]): 98, 100, 97, 6% | Population Pyknosed Nuclei (%) (HEK-293T; [7]): 62, 68, 60, 8% | Population Tubulin-Different-Phenotype (%) (HEK-293T; [7]): 96, 100, 92, 31% | Population Apoptotic (%) (HEK-293T; [8]): 5%, 53%, 62% | Population Hoechst High Intensity Objects (%) (HEK-293T; [8]): 1, 2, 8, 4% | Population Mitochondria Different-Phenotype (%) (HEK-293T; [8]): 95, 8, 86, 96% | Population Pyknosed Nuclei (%) (HEK-293T; [8]): 51, 4, 43, 46% | Total Cell Count (HEK-293T; [8]): 240, 2193, 163, 265 | Population Hoechst High Intensity Objects (%) (HEK-293T; [10]): 2%, 4%, 7%

CC[C@@H]1C(=O)N(C)c2cnc(Nc3ccc(C(=O)N[C@H]4CC[C@H](N5CCN(CC6CC6)CC5)CC4)cc3OC)nc2N1C(C)C [VOLASERTIB]
Population Pyknosed Nuclei (%) (U2OS; [2]): 6% and 24% | Population Tubulin-Different-Phenotype (%) (Fibroblast; [1]): 10% and 48% | Population Mitochondria Different-Phenotype (%) (Fibroblast; [3]): 33% and 3% | Population Tubulin-Different-Phenotype (%) (Fibroblast; [3]): 52% and 11% | Population Mitotic Cells (%) (Fibroblast; [4]): 0% and 35% | Population Pyknosed Nuclei (%) (Fibroblast; [4]): 2% and 21% | Population Mitochondria Different-Phenotype (%) (HEK-293T; [1]): 57% and 16% | Population Apoptotic (%) (HEK-293T; [2]): 6% and 19% | Population Apoptotic (%) (HEK-293T; [3]): 46% and 15% | Population Fragmented Nuclei (%) (HEK-293T; [3]): 32% and 10% | Population Mitochondria Different-Phenotype (%) (HEK-293T; [3]): 67% and 22%
